Laboratory results published in patent US12583836B2 (Anaxis Pharma Pty Ltd, priority 2020, dated 2026).

How the values were obtained:
RIP1 = biological target: T1, RIP1 (Homo sapiens, UniProt Q13546); assay: KINOMEscan binding assay, RIP1; conditions: equilibrium dissociation constant, class symbols
T1 construct: purchased DiscoverX (KINOMEscan service); host or cells: E. coli BL21-derived (T7 phage) or HEK293
T1 sequence (Q13546 1-671): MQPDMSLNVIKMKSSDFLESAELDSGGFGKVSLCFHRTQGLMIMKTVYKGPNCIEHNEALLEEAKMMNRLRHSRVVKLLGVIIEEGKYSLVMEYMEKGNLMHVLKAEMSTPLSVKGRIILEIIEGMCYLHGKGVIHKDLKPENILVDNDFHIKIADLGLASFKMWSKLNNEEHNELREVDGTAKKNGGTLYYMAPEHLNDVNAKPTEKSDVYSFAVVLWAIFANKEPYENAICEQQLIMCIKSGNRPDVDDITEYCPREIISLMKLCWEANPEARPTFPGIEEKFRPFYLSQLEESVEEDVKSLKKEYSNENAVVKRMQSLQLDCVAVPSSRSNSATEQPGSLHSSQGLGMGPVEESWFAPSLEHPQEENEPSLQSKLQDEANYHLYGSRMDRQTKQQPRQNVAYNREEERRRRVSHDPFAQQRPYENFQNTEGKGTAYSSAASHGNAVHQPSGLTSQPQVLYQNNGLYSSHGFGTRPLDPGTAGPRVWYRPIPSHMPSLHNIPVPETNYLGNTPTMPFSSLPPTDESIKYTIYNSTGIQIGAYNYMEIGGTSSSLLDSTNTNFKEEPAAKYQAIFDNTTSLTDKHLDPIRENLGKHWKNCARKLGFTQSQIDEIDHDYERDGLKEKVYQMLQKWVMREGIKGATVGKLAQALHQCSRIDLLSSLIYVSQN

RIP3 = biological target: T2, RIP3 (Homo sapiens, UniProt Q9Y572); assay: KINOMEscan binding assay, RIP3; conditions: equilibrium dissociation constant, class symbols
T2 construct: purchased DiscoverX (KINOMEscan service); host or cells: E. coli BL21-derived (T7 phage) or HEK293
Text: The Hill Slope was set to −1.

[1] = system: U937 human histiocytic leukemia cell line; assay: Inhibition of TSQ induced necroptosis, 384 well plate format (CellTitre-Glo); conditions: Homo sapiens, U-937; U937 cells, TSQ cocktail (TNF, Smac mimetic, Q-VD-OPh), CelltiterGlo; read-out: Inhibition of TSQ-induced necroptosis (IC50 cell-based assay)
Method: […] ASSAY: Screening compounds for inhibition of TSQ induced necroptosis, 384 well plate format.
Cell Line ID: U937 human histiocytic leukemia cell line.
Cell Concentration (cells/well): Final cell density is 20000 cells per well.
Cell growth medium: HT-RPMI medium+7.4% Fetal Bovine Serum (FBS). Cells are cultured in Corning 150 cm^2 tissue culture flasks with vented caps at 37° C./5% CO2.
Incubation: Plates were incubated at 37° C./5% CO2 in a humidified incubator for 48 hours following addition of compounds and death stimuli (TSQ cocktail).
Compound concentration: 36 μM starting concentration, 1:3 dilution, 10 point
DMSO final concentration (% v/v): 0.3%.
Compounds in TSQ cocktail (T: TNF; S: Smac mimetic; Q: Q-VD-OPh) and their final concentrations:
hTNF-Fc (100 ng/ml)—produced by standard procedures as shown in Bossen et al., J Biol Chem, 2006, 281(20), 13964-13971. […]
The cellular assay was carried out according to the following steps: • 1. […] Read luminescence readout on a plate reader. […]
Percent viability was calculated for each compound according to equation (2):
[formula] • wherein • RawData is the readout of any cell containing a compound of the invention • TA is the total activity provided by the luminescence readout from DMSO only wells (columns 2 and 24)=100% viability • NSA is the non-specific activity provided by DMSO+TSQ wells (columns 1 and 23)=0% viability […]

T2 sequence (Q9Y572 whole entry): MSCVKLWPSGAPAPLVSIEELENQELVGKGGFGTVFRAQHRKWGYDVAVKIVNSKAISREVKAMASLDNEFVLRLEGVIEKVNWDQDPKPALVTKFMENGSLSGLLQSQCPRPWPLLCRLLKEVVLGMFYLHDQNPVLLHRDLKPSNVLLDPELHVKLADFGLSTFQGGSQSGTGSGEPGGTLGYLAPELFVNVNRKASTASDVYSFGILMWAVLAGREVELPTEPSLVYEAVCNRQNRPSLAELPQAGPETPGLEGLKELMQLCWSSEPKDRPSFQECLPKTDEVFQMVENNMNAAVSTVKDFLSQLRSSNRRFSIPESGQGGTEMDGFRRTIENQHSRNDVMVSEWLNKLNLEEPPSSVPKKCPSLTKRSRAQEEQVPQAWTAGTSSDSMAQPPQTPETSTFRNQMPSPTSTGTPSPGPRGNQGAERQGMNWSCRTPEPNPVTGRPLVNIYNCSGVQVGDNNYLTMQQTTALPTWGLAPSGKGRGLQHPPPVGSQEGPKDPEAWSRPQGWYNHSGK

Compound: CCS(=O)(=O)Nc1ccc(-c2n[nH]c(Nc3ccc(C(F)(F)F)cn3)c2C(N)=O)cc1 [Compound 93, 3-(4-(ethylsulfonamido)phenyl)-5-((5-(trifluoromethyl)pyridin-2-yl)amino)-1H-pyrazole-4-carboxamide]
- Kd (RIP1): > 30 µM
- Kd (RIP3): > 30 µM

Compound: Cc1cnc(Nc2[nH]nc(-c3ccc(NS(=O)(=O)C(F)F)c(OCc4ccc(F)c(F)c4)c3)c2C(N)=O)cn1 [Compound 291, 3-(3-((3,4-difluorobenzyl)oxy)-4-((difluoromethyl)sulfonamido)phenyl)-5-((5-methylpyrazin-2-yl)amino)-1H-pyrazole-4-carboxamide]
- IC50 [1]: < 0.01 µM
